Data published in PubChem BioAssay AID588342 (National Center for Advancing Translational Sciences (NCATS), 2011).
The campaign covered roughly 360,000 compounds. About 25,000 (6.9%) were called active. Inconclusive results, whose numbers are uncertain, are shown with a selection of clear calls. The call rests on the fitted dose curve; in most records, active means well fitted inhibition curve with a large enough effect; inconclusive means small, poorly fitted or top-dose-only effect; inactive means flat fitted curve, though single readings scatter. Potencies of inconclusive entries are doubtful fits and often do not repeat.
Further: nearly all actives have a fitted effect of over 55% in size.
Potency means the concentration at half of the fitted maximal effect; tags describe the fitted curve by direction and shape.
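Wherever activity change, negative = inhibition is given: plate controls were vehicle for no effect and reference inhibitor for full effect.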

What follows are compounds tested against Luciferin 4-monooxygenase (Photinus pyralis) (UniProt P08659) (assay: qHTS profiling assay for firefly luciferase inhibitor/activator using purifed enzyme and Km concentrations of substrates (counterscreen for miR-21 project)). Conditions: purified FLuc, luminescence inhibition; series mostly up to 57.5 µM; activity change, negative = inhibition: at the top concentration.
Sequence of UniProt P08659 (P08659 whole entry, looked up): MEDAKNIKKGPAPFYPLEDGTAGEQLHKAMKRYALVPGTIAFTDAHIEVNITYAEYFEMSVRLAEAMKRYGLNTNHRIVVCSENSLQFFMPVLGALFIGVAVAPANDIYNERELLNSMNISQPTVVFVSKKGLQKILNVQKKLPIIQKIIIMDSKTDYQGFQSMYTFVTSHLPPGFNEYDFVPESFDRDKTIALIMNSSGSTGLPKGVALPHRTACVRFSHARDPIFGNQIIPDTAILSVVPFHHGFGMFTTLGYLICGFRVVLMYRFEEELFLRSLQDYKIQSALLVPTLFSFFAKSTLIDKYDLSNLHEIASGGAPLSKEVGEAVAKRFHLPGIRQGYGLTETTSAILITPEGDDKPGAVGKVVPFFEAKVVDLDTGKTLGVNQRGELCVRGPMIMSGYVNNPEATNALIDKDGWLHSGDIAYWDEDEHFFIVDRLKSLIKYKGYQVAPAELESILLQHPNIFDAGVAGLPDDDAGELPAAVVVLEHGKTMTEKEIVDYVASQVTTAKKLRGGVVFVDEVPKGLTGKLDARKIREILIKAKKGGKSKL
In short: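 Purified P. pyralis luciferase, 10 nM final, with Km-level 10 uM D-luciferin and 10 uM ATP in 50 mM Tris acetate pH 7.5, 10 mM Mg acetate, 0.01% Tween-20, 0.05% BSA; 6-point qHTS titration about 60 µM downward; luminescence read.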
Cc1cc(Cl)ccc1OCC(=O)Nc1nc(-c2cccs2)cs1 was tested, and the Potency was active: 23.9 µM. With Cc1ccc(/C=N/NC(=O)c2nnn(-c3nonc3N)c2CSc2ccccc2)o1 the Potency was inconclusive: 23.9 µM [inhibitor, partial curve, poor fit]. In the case of CC(=O)CSc1ncnc2c1oc1ccccc12, the Potency is reported as inconclusive: 21.3 µM [inhibitor, single point]. For C/C(=N\N(C)C)C1=C(O)c2ccccc2C1=O, the Potency was inconclusive: 26.9 µM [inhibitor, single point]. Cn1cc([N+](=O)[O-])c(C(=O)Nc2ccn(C34CC5CC(CC(C5)C3)C4)n2)n1 was tested, and the Potency was inconclusive: 26.9 µM [inhibitor, single point]. For CCCCOc1ccc(C(=O)N/C(=C/C=C/c2ccccc2)C(=O)NCCCO)cc1, the Potency was inconclusive: 21.3 µM [inhibitor, partial curve, poor fit]. For CN(Cc1nccn1C)C(=O)C1CCC(=O)N(CCc2ccc(Cl)cc2)C1 (stereo not drawn), the “activity change, negative = inhibition” value was inactive: 0.579%. For COc1cccc(C(=O)Nc2ccc(-c3nc4ccccc4s3)cc2Cl)c1, the Potency was inconclusive: 21.3 µM [inhibitor, partial curve, poor fit]. In the case of CCOc1ccc(NC(=O)CSc2nnc(Cc3csc(C)n3)o2)cc1, the “activity change, negative = inhibition” value is reported as inactive: 2.4%. With Cc1ccc(Cl)c(NC(=O)Nc2csc3c2CCCC3)c1 the Potency was inconclusive: 6.75 µM [inhibitor, full curve]. With Cc1ccc(NC(=S)N(Cc2ccccc2)C(C)C)cc1 the Potency was inconclusive: 23.9 µM [inhibitor, single point]. With Cc1cc(Cl)ccc1Oc1nccc(N(C)C)c1C#N the “activity change, negative = inhibition” value was inactive: -19.9%. In the case of CC(C)C(c1nnnn1Cc1cccs1)N1CCN(C(=O)c2ccco2)CC1 (stereo not drawn), the “activity change, negative = inhibition” value is reported as inactive: -0.331%. In the case of CSc1ccccc1OCc1cc(C(=O)N2CCN(c3ccccc3)CC2C)no1 (stereo not drawn), the Potency is reported as active: 15.1 µM. N#C/C(=C\c1ccc(F)c(Br)c1)C(=O)NC1CC1 was tested, and the Potency was inconclusive: 2.69 µM [inhibitor, full curve]. With COc1ccc(-c2cc(C(=O)Nc3ccn(Cc4ccc(C)cc4)n3)no2)cc1OC the “activity change, negative = inhibition” value was inactive: -1.86%. CCn1c(SCC(=O)Nc2ccc(OC)cc2)nc2nc3c(cc2c1=O)COC(C)(C)C3 was tested, and the “activity change, negative = inhibition” value was inactive: 3.13%. Cc1cc(N/N=C\c2ccccc2)nc(-c2ccccc2O)n1 was tested, and the Potency was active: 6.01 µM. For Cc1nonc1C(=O)N/N=C/c1ccc(O)cc1, the Potency was active: 6.01 µM. Cc1ccc(-c2nc(CSCC(=O)NCCN3CCN(Cc4ccccc4)CC3)c(C)o2)cc1 was tested, and the Potency was inconclusive: 30.1 µM [inhibitor, partial curve, poor fit]. CCOC(=O)C1(Cc2ccc(OC)cc2)CCN(C(=O)CCc2cccnc2)CC1 was tested, and the Potency was inconclusive: 37.9 µM [inhibitor, partial curve, poor fit]. For Cc1ccc(NC(=O)CN(C)C(=O)COC(=O)CCS(=O)(=O)c2ccc(C)cc2)cc1, the “activity change, negative = inhibition” value was inactive: 0.428%. COc1ccc(C2=NN(C(=O)c3cccs3)C(O)(C(F)(F)F)C2)cc1 (stereo not drawn) was tested, and the Potency was inconclusive: 26.9 µM [inhibitor, partial curve, poor fit]. COc1ccc(-c2nc(-c3ccccn3)no2)cc1 was tested, and the Potency was active: 0.0953 µM. With COC(=O)[C@@]1(Cc2ccccc2)[C@H]2c3cc(C(=O)N4CCCC4)n(Cc4ccsc4Br)c3C[C@H]2CN1C(=O)c1ccccc1 the Potency was inconclusive: 23.9 µM [inhibitor, partial curve, poor fit]. With Cc1cc(C)cc(NC(=O)Nc2ccc3c(c2)N(C)C(=O)CS3)c1 the Potency was inconclusive: 8.49 µM [inhibitor, partial curve, poor fit]. Cc1cc(C(=O)COC(=O)c2ccc(Cl)c(S(N)(=O)=O)c2)c(C)n1C1CC1 was tested, and the Potency was active: 4.78 µM. Cc1nnc(N/N=C\c2ccc(-c3ccccc3[N+](=O)[O-])o2)n1N was tested, and the Potency was inconclusive: 21.3 µM [inhibitor, single point]. In the case of C=CCn1cc(/C=N/Nc2nc3ccccc3[nH]2)c2ccccc21, the Potency is reported as active: 5.36 µM. CCCC(=O)N=C1SC2CS(=O)(=O)CC2N1c1ccc(-c2nc3ccc(C)cc3s2)cc1 (stereo not drawn) was tested, and the Potency was active: 5.36 µM. In the case of CC1(C)C(=O)OC(c2cc(Br)ccc2O)C(C)(C)C1=O (stereo not drawn), the Potency is reported as inconclusive: 26.9 µM [inhibitor, partial curve, poor fit]. For Cc1ccc(Nc2nc(-c3sc(C)nc3C)cs2)cc1, the Potency was active: 12 µM. With O=C(N/N=C/c1ccc(O)cc1O)/C(=C/c1ccccc1)CCO the Potency was inconclusive: 26.9 µM [inhibitor, partial curve, poor fit]. In the case of O=c1c2c(nc3nc(NCc4ccc(Cl)cc4)[nH]n13)CCC2, the Potency is reported as inconclusive: 23.9 µM [inhibitor, single point]. In the case of COc1ccc(/C=C2\SC(=S)N(CCC(=O)Nc3ccc(O)cc3)C2=O)cc1, the Potency is reported as inconclusive: 1.69 µM [inhibitor, partial curve, poor fit]. With COc1ccc(NC(=O)C(=O)NNC(=O)c2cccs2)cc1 the Potency was inconclusive: 37.9 µM [inhibitor, single point]. With CC(=O)c1sc2nsc(SCCN3CCCCC3)c2c1N the Potency was inconclusive: 26.9 µM [inhibitor, single point]. For CC(=O)Nc1ccc(NC(=O)C(C)Sc2n[nH]c(=O)n2Cc2ccccc2)cc1 (stereo not drawn), the “activity change, negative = inhibition” value was inactive: 0.092%. In the case of Cc1cc(C)c2[nH]c(C(=O)Nc3ccc(F)cc3Br)cc2c1, the Potency is reported as inconclusive: 13.5 µM [inhibitor, partial curve, poor fit]. CN(Cc1ccccc1)C(=O)CSc1nc2ccsc2c(=O)n1-c1ccc(F)cc1 was tested, and the “activity change, negative = inhibition” value was inactive: -16.6%. With COc1ccc(/C=C2/Sc3ccc(C(=O)NCCN4CCCCCC4)cc3NC2=O)cc1 the Potency was inconclusive: 13.5 µM [inhibitor, partial curve, poor fit]. CCCCc1ccc(NC(=O)C(=O)NCCN2CCN(C(=O)c3ccc([N+](=O)[O-])cc3)CC2)cc1 was tested, and the “activity change, negative = inhibition” value was inactive: -3.19%. In the case of CN(CCN1CCOCC1)C(=O)c1cc(COc2ccc(F)c(F)c2)on1, the Potency is reported as inconclusive: 26.9 µM [inhibitor, partial curve, poor fit]. For COc1ccc(CNC(=O)C(c2ccco2)N(Cc2cccs2)C(=O)Cc2cccs2)cc1 (stereo not drawn), the “activity change, negative = inhibition” value was inactive: 3.6%. For COc1cccc(CNc2nc3c(-c4ccccc4)nnn3c3ccccc23)c1, the “activity change, negative = inhibition” value was inactive: -4.39%. CC1CCCC(C)N1C(=O)COC(=O)CNC(=O)c1sc2ccccc2c1Cl (stereo not drawn) was tested, and the Potency was inconclusive: 23.9 µM [inhibitor, single point]. In the case of O=C(c1ccc(-c2ccccc2)cc1)c1ccc([N+](=O)[O-])cc1, the Potency is reported as inconclusive: 26.9 µM [inhibitor, single point]. For O=C(N/N=C/c1ccc(N2CCOCC2)s1)c1ccccc1Br, the Potency was inconclusive: 23.9 µM [inhibitor, partial curve, poor fit]. With Nc1nonc1N/N=C/c1c(O)ccc2ccccc12 the Potency was inconclusive: 37.9 µM [inhibitor, single point]. For CCn1ccc(C(=O)Nc2ccccc2SC)n1, the Potency was inconclusive: 23.9 µM [inhibitor, partial curve]. Oc1c(C=Nc2ccccc2Cl)[nH]c2ccccc12 was tested, and the Potency was inconclusive: 0.213 µM [inhibitor, full curve, poor fit]. In the case of CC(C)Oc1ccc(S(=O)(=O)N2CCOCC2)cc1NC(=O)c1ccc(N2CCCC2=O)cc1, the “activity change, negative = inhibition” value is reported as inactive: 3.99%. For CCC1CCCCN1C(=O)CSc1nnc(-c2ccc(OC)cc2)o1 (stereo not drawn), the Potency was inconclusive: 15.1 µM [inhibitor, partial curve]. In the case of COc1ccc(Nc2nnc(-c3ccc(C(N)=O)cc3)c3ccccc23)cc1, the Potency is reported as inconclusive: 26.9 µM [inhibitor, partial curve, poor fit]. With O=C(N/N=C/C=C\c1ccccc1)c1cnccn1 the Potency was inconclusive: 26.9 µM [inhibitor, single point]. COc1ccc2cc(C(=O)C3CCCN(C(=O)c4sc(C)nc4C)C3)ccc2c1 (stereo not drawn) was tested, and the “activity change, negative = inhibition” value was inactive: -3.22%. In the case of CN1C(C(=O)Nc2ccccn2)=C(O)c2sccc2S1(=O)=O, the Potency is reported as inconclusive: 15.1 µM [inhibitor, partial curve, poor fit]. In the case of N#C/C(=C\c1ccc(C(=O)O)cc1)S(=O)(=O)c1cc(Br)ccc1Br, the Potency is reported as inconclusive: 30.1 µM [inhibitor, partial curve, poor fit]. With O=C(NC(=S)Nc1ccc(N2CCOCC2)cc1)c1cccc(Cl)c1 the “activity change, negative = inhibition” value was inactive: -9.98%. O=[N+]([O-])c1ccc(N=Cc2c(O)ccc3ccccc23)cc1 was tested, and the “activity change, negative = inhibition” value was inactive: -8.44%. With CCC(C)c1ccc(NC(=O)NCCN2CCCCC2)cc1 (stereo not drawn) the “activity change, negative = inhibition” value was inactive: 0.328%. In the case of Cc1ccc(NC(=O)c2cccs2)cc1NC(=O)c1ccc(F)cc1, the Potency is reported as inconclusive: 26.9 µM [inhibitor, single point]. For CC(=O)c1ccc(N2CCN(C(=O)c3cc(-c4ccncc4)nc4ccc(Cl)cc34)CC2)cc1, the Potency was inconclusive: 15.1 µM [inhibitor, partial curve]. With CC1(C)CC(=O)C(C=Nc2ccc(Cl)cn2)=C(O)C1 the Potency was inconclusive: 37.9 µM [inhibitor, partial curve, poor fit]. CN(C)c1ccc(NC(=O)CCN2C(=O)c3cccc([N+](=O)[O-])c3C2=O)cc1 was tested, and the Potency was inconclusive: 37.9 µM [inhibitor, partial curve, poor fit]. In the case of CN(C)S(=O)(=O)c1ccc(C(=O)NCCSc2ccccc2)cc1, the Potency is reported as inconclusive: 21.3 µM [inhibitor, partial curve]. CCOC(=O)c1cc(=O)n(Cc2ccccc2C)c2ccccc12 was tested, and the Potency was inconclusive: 37.9 µM [inhibitor, single point]. In the case of Cc1nn(-c2ccccc2)c(Cl)c1/C=C1\SC(=S)N(C)C1=O, the Potency is reported as inconclusive: 21.3 µM [inhibitor, partial curve].
